In the RNAGym collection of RNA variant scans (doi:10.1093/nar/gkz1192):
The source gives no read counts; variants with many changes may rest on few reads.

B1: CPEB3 Ribozyme (parent)
chain: UAACAGGGGGCCACAGCAGAAGCGUUCACGUCGCAGCCCCUGUCAGAUUCUGGUGAAUCUGCGAAUUCUGCUGUAUAUCUC

Variants of: B1
Experiment: self-cleavage, relative activity (ratio to wild type); higher = more cleavage; in vitro, sequencing
How it was run: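 After error-prone PCR and barcoding, CPEB3 ribozyme mutant libraries were transcribed with T7 RNA polymerase at 37°C for 5 hours, then given 15 min with DNase I before an EDTA stop, and they cleaved during both steps. Reverse transcription with template switching preceded Illumina sequencing. Relative activity divides a variant's cleaved/total read fraction by the unmutated ribozyme's. At least 5 reads were required per variant, and three batches were averaged.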

| Variant | self-cleavage |
| --- | --- |
| C40A A45G U49C U60C A64G U69A G70C | 0.06 |
| C39A C40U A45U A75G | 0.1 |
| A35U U67A U78C | 0.17 |
| A35U C40U U51C U72C U80C | 0.31 |
| C39A U49C A57G | 0.18 |
| C37U U66C U80C | 0.12 |
| C39U U43C U67C U69A | 0.22 |
| C39A U41A A56G | 0.09 |
| C38A A57G U80C | 0.25 |
| C38U A56G U66C | 0.05 |
| G36C C40U U49A U74A U80C | 0.11 |
| C38U U41C A45U U48C A56G U60A | 0.22 |
| A35G U69A U76C | 1.1 |
| C37A C39A A56G U69C C71U U72C U76C | 0.04 |
| A35U C39U U80C | 0.35 |
| C38U A57G A65G | 0.08 |
| C37A A56G A64G A75G | 0.09 |
| C37A A65U U69A A77C U80A | 0.21 |
| C38U G73A U80G | 1.32 |
| C38U U49C U72C | 0.21 |
| A35U A65G U72A | 0.2 |
| A35U U66A A75U | 0.15 |
| C39U U41C G46U U76C U78C | 0.24 |
| C38U U48C U49C U69A | 0.33 |

| Variant | self-cleavage |
| --- | --- |
| G36A A56C A64G | 0.15 |
| A35U U58C U69C C81G | 0.1 |
| A35U C62G U69A | 0.11 |
| A35U U60C U76C | 0.13 |
| A35U U51G U58C | 0.37 |
| A35G U72G G73A | 1.3 |
| A35U U69C G70A | 0.18 |
| C38A A45C A47G A56G | 0.17 |
| C37A U54A G55C U60A | 0.14 |
| A35U U41A C71G | 0.13 |
| C37G U54A A57U | 0.36 |
| C37U C40G A57G | 0.15 |
| A35U C37G U80C | 0.33 |
| A35U A64U U66A U69C U72A | 0.05 |
| C38U U60A U72C | 0.25 |
| C38U G53A A65G U74A | 0.29 |
| C39A C50U A57G U69A | 0.13 |
| C37A U43C U78A | 0.1 |
| C38A U66C A75G | 0.14 |
| A35U A56G A57G U72A | 0.19 |
| C38U U49C U69C | 0.11 |
| A35U A64G U69C | 0.17 |
| C39G U48A U74C | 0.23 |
| A35U A47G U69C | 0.29 |

| Variant | self-cleavage |
| --- | --- |
| A35U A45G U48A | 0.09 |
| C37U U49C A64G | 0.19 |
| A35U A56G G61U | 0.17 |
| A35U U60G U72C | 0.13 |
| C39U U60C A65G | 0.19 |
| A35U U41C U54C | 0.33 |
| C38G A75G U80C | 0.07 |
| A35U U49A A64G U76A | 0.15 |
| A35U U43C U51A U58A | 0.12 |
| G36A U41C U67A U72C A77G | 0.2 |
| A35U A57G U78C | 0.53 |
| A35U A45U A65G U69C U72A | 0.11 |
| C38U U43C U51C | 0.22 |
| C37U U58C U67G U72G U76A | 0.06 |
| C39U U43C A47G A57G U80C | 0.4 |
| A35U U49C A57G U78A | 0.11 |
| A35U A45G U54A | 0.15 |
| A35U A64U U72A | 0.08 |
| C39A C59A U67G | 0.14 |
| A35U U49C U54C U80C | 0.16 |
| A35U U41A U78C | 0.05 |
| C39G U54A A57G U78C | 0.09 |
| G36A C40U A56G U74C U76C | 0.12 |
| C38U U48G A56G | 0.12 |

| Variant | self-cleavage |
| --- | --- |
| C38U U54C U72C | 1.03 |
| C37U U51C U74C | 1.22 |
| G36A C39A A57C U72A U76A A77G | 0.06 |
| C37A C39A U69C U72A | 0.12 |
| A35U A45G A47G U69C U76A | 0.16 |
| A35U C39U U51A U58C U74C | 0.24 |
| A35G U74C U78A | 1.27 |
| C37A U41A A45U U49C U72A U74C C81U | 0.02 |
| G36A A47G U72C U76C | 0.41 |
| C38A U58C U69A | 0.09 |
| C39G U58A U80C | 0.44 |
| G36A A64U U67A | 0.18 |
| C37G U51C C59U | 0.41 |
| A35U A47G U49A | 0.1 |
| A35U A45U G55A U58C | 0.08 |
| C37U C39A C40U U78C | 0.25 |
| G36A U60C G61C A77G | 0.08 |
| G36A U41A A45C U49A U69C U72C | 0.14 |
| A35U C39G U51A A64G | 0.07 |
| C39A C40U U74C A77U | 0.19 |
| A35U U43C G61A A65G | 0.08 |
| C37A U49C A77U | 0.57 |
| A35U U43C U51G U58A A64G U80C | 0.13 |
| A35U U72C C79A | 1.02 |

| Variant | self-cleavage |
| --- | --- |
| C38U U41C A57U | 0.49 |
| A35U A45U A77G U80A | 0.12 |
| C38A A47G U49C U60C G73U | 0.02 |
| C37G C38U U43C U54A U69A C81G | 0.07 |
| G36C U48A U49C | 0.16 |
| C38U A47G U51A A64G U74C | 0.86 |
| C37A U78A U80C | 0.25 |
| C37U U54A C71A | 0.18 |
| A35U C40A U69C | 0.1 |
| C38U U48C U66C | 0.12 |
| A35G U74A C81A | 1.3 |
| C38G C62A U72G A77U | 0.22 |
| A35U C39A U43A G61A | 0.16 |
| A35U C37U G53A U54A | 0.19 |
| G36A A45G U49A A56U | 0.21 |
| C37U U41C U80A | 1.1 |
| A35U U43C C62U A65G A77U | 0.1 |
| G36U U43C G61C A65G | 0.12 |
| C38A C40G U41C U60C | 0.06 |
| C37G C62G U78C | 0.11 |
| A35U U43C U76C | 0.2 |
| G36A U48C U54C A56U | 0.07 |
| A35U A57G C62U U72A | 0.08 |
| G36U U48C U60C G63U U80C | 0.11 |

| Variant | self-cleavage |
| --- | --- |
| C38A C44U U49C | 0.07 |
| A35U G42C U69A A77G | 0.06 |
| C38U A45G C62U U72A | 0.16 |
| A35U U58C G70A | 0.15 |
| A35U A57G U76C | 0.5 |
| A35U G55U U69A | 0.09 |
| C38U A45G A65G | 0.21 |
| A35U U41C A56U U69A | 0.13 |
| C39U U67C C71A | 0.19 |
| C39A G55A U78C | 0.3 |
| A35U U54C U60C U78C | 0.12 |
| C37G U60C U78G | 0.12 |
| C38U U49C U67A | 0.08 |
| A35U U54C U72C | 0.55 |
| C38U U41C A45C A57G | 0.13 |
| A35U A45U U60A A64U U67C | 0.13 |
| A35U G55C A56G | 0.41 |
| A35U A56U U58C U80A | 0.13 |
| A35G U67C U72A | 0.46 |
| A35U U66C U78C | 0.13 |
| C39U A56G U72G | 0.4 |
| G36C A75U C81U | 0.06 |
| C37A C44U A56G | 0.16 |
| A35U U41G A56G U67C | 0.11 |

| Variant | self-cleavage |
| --- | --- |
| G36A U41C U80G | 0.62 |
| A35U U43C A47G U54C | 0.2 |
| C37A G52A U54A A57G U58C U76C | 0.05 |
| G36C A45U G61C A65G | 0.09 |
| C37U A57G U78C | 0.5 |
| G36U A56G U58A | 0.14 |
| A35U G36C U69G | 0.09 |
| G36A U41C A45G A56G | 0.09 |
| G36U U60G U80A | 0.11 |
| G36A U49A A56U | 0.27 |
| A35U U48A U60C C79U | 0.21 |
| A35U A45U U78A | 0.14 |
| A35U U43C A57G A77G | 0.14 |
| A35U U41C U76C | 0.46 |
| C39A U49C U54C | 0.2 |
| A35U U43A A57G A64G | 0.27 |
| A35U G36A U43C C62A U69C U78A | 0.09 |
| A35U A47U U72A A75U | 0.08 |
| A35U U41A A45G U48C U60C U78C | 0.15 |
| C37U U41C U60A | 0.24 |
| A35U U58A A65U | 0.1 |
| C38A U43C U78A | 0.16 |
| G36U U41C U58C U74C | 0.27 |
